Source: the supplement of paper PMC3334620
The full ranking holds about 33,000 sequences; the median of “E-score (-0.5 to 0.5)” is about -0.016, and the highest 2% start at about 0.31. Some of the results follow.

target: Cst6 (UniProt P40535); assay: PBM E-score (8-mer binding enrichment) (E-score (-0.5 to 0.5)); higher = stronger / more preferred TF binding; most listed sequences are background and not binding sites; conditions: protein concentration: 200 nM; construct: GST-DNA-binding domain
Outline: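 Using PURExpress in vitro transcription/translation, GST-tagged yeast transcription factors were made in full-length or DNA-binding-domain form. These were applied at about 100-200 nM to double-stranded universal all-10-mer Agilent arrays, and bound protein was detected with fluorescent anti-GST. Scans were normalised with masliner before the Universal PBM Analysis Suite assigned E-scores to ungapped eight-base words pooled with their reverse complements.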

Sequence	PBM E-score
TAAGTTCA	0.0249
CTAGCAGC	-0.143
ATGTTACA	0.123
CCAGATTA	0.0663
ACTAGTTC	0.0244
ACCCCTTG	-0.33
ATATACAG	0.133
AAAAGTAC	0.129
GGTTAGTA	0.0636
ACGGGCGG	-0.236
TCAGCAAA	0.197
ATTTCCTA	0.11
AAGTTTCT	0.205
ATCCGTCA	0.253
TCGACTCA	0.00059
CAAGCCGG	-0.0131
ACGCCTAT	-0.07
AAGCTTTC	0.0818
CGCGACCG	0.0126
GAGAGCGC	-0.065
GAGAGCCC	-0.336
ACAGTCTG	-0.239
GAGCCAGA	-0.0426
TCGCCCGA	-0.262

Sequence	PBM E-score
CGGATAGC	-0.022
CCGTCAAA	0.0647
GATTTGAA	0.104
TACTCAGA	0.137
ATTAGAGC	0.163
ACATCGAT	0.132
ACTAAGGA	-0.207
CTGACTGC	-0.12
GTGGAGGA	-0.0297
GACACGCC	0.0155
AGCTGGTA	-0.242
CTCAGTCA	0.1
GGAAATTA	0.25
GTACCTCA	-0.0484
CTAGGCAC	-0.0993
AAAGGAAG	-0.126
GCCTGATA	-0.0644
CTCGCGAA	-0.12
ACATACCG	-0.0815
AGCATCAT	0.251
TACGATAA	0.203
CAAATTTC	-0.0576
AACTCGCT	-0.112
AGCTCGCA	-0.057

Sequence	PBM E-score
GACCACTC	-0.168
CTCTTAGA	-0.0632
TCGTCACA	0.368
AGAAAAAC	0.00206
CCGGTCCC	-0.36
ATTACGAG	0.235
AATTAGCC	0.0058
AGATTATG	0.068
AGCGTGGG	-0.292
ACATCATA	0.443
CCATCCCC	-0.15
CACATGCG	0.106
CGGGATCC	-0.104
CCGTGAAA	0.1
CTTTACTA	0.159
AACTTGCA	0.0569
GCCCCTGA	-0.249
ACGGTTTG	-0.0412
GTGAGCCA	0.0286
ATAAATAA	0.335
CAATGGAA	0.0744
CCTCTTCA	-0.139
ATAAGTAA	0.164
AATCACCA	0.169

Sequence	PBM E-score
ACAGGCCC	-0.333
AACTAAAT	0.00726
CCACTTTC	0.0466
TCGGCCAA	-0.0317
CGAATGGC	-0.0119
CAGGGACG	-0.0973
CAGCCCAA	-0.0169
GGCCACGA	-0.116
CCCACTGC	-0.177
TAGCTCCA	-0.0325
CGAACCGA	0.122
AGTGGCGG	-0.0712
TCGTGCCA	-0.0834
GTAACGAC	0.0256
TACCAAAA	0.059
CATTCTTC	0.0436
CACTAGCA	-0.149
AGATACGA	0.116
ATGGGCTG	-0.207
ATTACTTA	0.237
CTTATTTC	0.266
CGTTACCA	0.168
